Source: the supplement of paper PMC4604168 (melanoma cell lines)
Some of the results follow. Most values come without repeats; read them as rough.

Tests used:
Experiment in all cases: cell count relative to DMSO control; melanoma cells; higher = more viable cells
Details in all cases: library dose: standard library concentration; 72 h
G361 = system: G361
IPC-298 = system: IPC-298
IST-MEL1 = system: IST-MEL1
LB2518-MEL = system: LB2518-MEL
LOXIMVI = system: LOXIMVI
MEL-HO = system: MEL-HO
MZ2-MEL = system: MZ2-MEL
MeWo = system: MeWo
RPMI7951 = system: RPMI7951
RVH-421 = system: RVH-421
SkMel28 = system: SkMel28
SkMel2 = system: SkMel2
SkMel30 = system: SkMel30
SkMel5 = system: SkMel5
UACC257 = system: UACC257
UACC62 = system: UACC62
WM115 = system: WM115
WM1716 = system: WM1716
WM1745 = system: WM1745
WM3526 = system: WM3526
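Also: cells treated in 1,536-well plates, then fixed and DAPI-stained, with nuclei counted from automated high-throughput microscope images.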

Compound	cell count (G361)	cell count (IPC-298)	cell count (IST-MEL1)	cell count (LB2518-MEL)	cell count (LOXIMVI)	cell count (MEL-HO)	cell count (MZ2-MEL)	cell count (MeWo)	cell count (RPMI7951)	cell count (RVH-421)	cell count (SkMel28)	cell count (SkMel2)	cell count (SkMel30)	cell count (SkMel5)	cell count (UACC257)	cell count (UACC62)	cell count (WM115)	cell count (WM1716)	cell count (WM1745)	cell count (WM3526)
CC(=O)O[C@@]12CO[C@@H]1C[C@H](O)[C@@]1(C)C(=O)[C@H](O)C3=C(C)[C@@H](OC(=O)[C@H](O)[C@@H](NC(=O)OC(C)(C)C)c4ccccc4)C[C@@](O)([C@@H](OC(=O)c4ccccc4)[C@H]21)C3(C)C [Docetaxel] + CN1CCN(c2ccc3nc(-c4c(N)c5c(F)cccc5[nH]c4=O)[nH]c3c2)CC1 [Dovitinib] (first compound 0.0005 µM, partner dose 0.5 µM)	14.8%	36.4%	42.3%	31.2%	71.8%	33.1%	29.3%	20.1%	14.2%	52.2%	28.2%	20.1%	43.4%	31.2%	62.4%	39.2%	28.2%	33.7%	36.3%	28.9%
CC(=O)c1c(C)c2cnc(Nc3ccc(N4CCNCC4)cn3)nc2n(C2CCCC2)c1=O [palbociclib] + CO[C@@H]1[C@H](N(C)C(=O)c2ccccc2)C[C@H]2O[C@]1(C)n1c3ccccc3c3c4c(c5c6ccccc6n2c5c31)C(=O)NC4 [Midostaurin] (first compound 0.2 µM, partner dose 0.4 µM)	49.2%	68.1%	61.5%	58.9%	55.9%	81.7%	55.6%	48%	42.7%	54.2%	40.9%	48.6%	83.1%	51.9%	74.6%	71%	47.5%	40.6%	36%	41.3%
Nc1ncn([C@H]2C[C@H](O)[C@@H](CO)O2)c(=O)n1 [decitabine] + C=CCn1c(=O)c2cnc(Nc3ccc(N4CCN(C)CC4)cc3)nc2n1-c1cccc(C(C)(C)O)n1 [MK1775] (first compound 0.5 µM, partner dose 0.1 µM)	60.5%	55.4%	77%	54%	71.6%	66%	92.4%	63.1%	43.5%	51.4%	40%	74.7%	80.4%	46.6%	81.7%	56.4%	62%	62.9%	41.2%	67%
Nc1nc(F)nc2c1ncn2[C@@H]1O[C@H](CO)[C@@H](O)[C@@H]1O [fludarabine] + OCCn1cc(-c2cnc3nnn(Cc4ccc5ncccc5c4)c3n2)cn1 [PF04217903] (first compound 1 µM, partner dose 5 µM)	77.9%	78.8%	69.2%	70.2%	68.4%	74.9%	104%	87.2%	48.4%	74.7%	3.11%	1.25%	20.2%	27.4%	32.2%	92%	84.3%	78.9%	76%	21.8%
CC(=O)O[C@@]12CO[C@@H]1C[C@H](O)[C@@]1(C)C(=O)[C@H](O)C3=C(C)[C@@H](OC(=O)[C@H](O)[C@@H](NC(=O)OC(C)(C)C)c4ccccc4)C[C@@](O)([C@@H](OC(=O)c4ccccc4)[C@H]21)C3(C)C [Docetaxel] + CNC(=O)c1cc(Oc2ccc(NC(=O)Nc3ccc(Cl)c(C(F)(F)F)c3)cc2)ccn1 [sorafenib] (first compound 0.0005 µM, partner dose 2 µM)	13%	39.1%	42.4%	34.6%	61.6%	39.5%	36.8%	20.2%	22.1%	58.9%	12.1%	19.3%	40.5%	31%	59.7%	50.5%	33.2%	33.9%	46.7%	29.1%
Nc1ccn([C@@H]2O[C@H](CO)[C@@H](O)C2(F)F)c(=O)n1 [gemcitabine] + Nc1ncn([C@H]2C[C@H](O)[C@@H](CO)O2)c(=O)n1 [decitabine] (first compound 0.002 µM, partner dose 0.5 µM)	29.3%	34.6%	36.6%	58.8%	74.7%	42.1%	49.3%	30.9%	44.7%	66.6%	66.5%	92%	97.5%	60.3%	87.3%	62%	53%	49.4%	59.5%	80.3%
CO[C@H]1C[C@@H]2CC[C@@H](C)[C@@](O)(O2)C(=O)C(=O)N2CCCC[C@H]2C(=O)O[C@H]([C@H](C)C[C@@H]2CC[C@@H](OCCO)[C@H](OC)C2)CC(=O)[C@H](C)/C=C(\C)[C@@H](O)[C@@H](OC)C(=O)[C@H](C)C[C@H](C)/C=C/C=C/C=C/1C [everolimus] + CN(NC(=O)CC(=O)NN(C)C(=S)c1ccccc1)C(=S)c1ccccc1 [STA4783] (first compound 0.1 µM, partner dose 0.03 µM)	20.1%	60.5%	33.6%	25%	73.4%	68.3%	81.8%	21.3%	43.9%	75.6%	6.47%	55.1%	65.7%	44.9%	82.6%	58.5%	22.6%	56.7%	32.4%	77.1%
